{"source": "PubChem BioAssay AID686971", "about": "(National Center for Advancing Translational Sciences (NCATS), 2013)", "note": "Out of some 360,000 compounds screened, about 7,500 (2.1%) were called active. The inconclusive results got no clear call from the source; some entries with a clear call stand among them for comparison. Calls follow the shape of the dose curve; as a rule, active = well fitted cell-killing curve with a large enough effect; inconclusive = small, poorly fitted or top-dose-only effect, or effect the other way, or another doubt; inactive = no such curve, though single readings can be large or run the other way. Potencies of inconclusive entries are left out as doubtful fits. Potency is read from the fitted curve at half-maximal effect; tags tell the direction and shape of the fitted curve."}
{"assay": "qHTS for induction of synthetic lethality in tumor cells producing 2HG: qHTS for the HT-1080-IDH1KD cell line;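 as to activity, negative = toxicity: 0% = DMSO wells and -100% = cell-free medium wells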", "settings": "HT-1080 IDH1 knockdown viability, ATP luminescence, 48 h; activity, negative = toxicity: at 46.1 µM (top of the series) unless noted", "outline": "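Assay cells: HT-1080 with IDH1 knockdown, 750 per well, RPMI/5% FBS. Exposure: 48 h at 37 °C following 2 h pre-incubation. Read: CellTiter-Glo luminescence; fitted concentration-response, curve class assigned.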"}
{"smiles": "Cc1c(C(=O)NCc2ccccc2)c(-c2ccccc2)nn1-c1ccccc1", "Potency": "inactive"}
{"smiles": "Cc1occc1C(=O)N/N=C/C=C/c1ccc(N(C)C)cc1", "Potency": "inconclusive [cytotoxic, single point]"}
{"smiles": "C[C@@H]1CC=C[C@H]2[C@H]1C(=O)N(Cc1ccccc1)[C@H]2c1ccc2ccccc2c1", "Potency": "inconclusive [cytotoxic, single point]"}
{"smiles": "O=C(Nc1ccccc1O)c1ccccc1O", "Potency": "inactive"}
{"smiles": "Cc1nn2c(NCc3cccnc3)c3c(nc2c1-c1ccccc1)CCC3", "Potency": "inconclusive [cytotoxic, partial curve, poor fit]"}
{"smiles": "FC(F)(F)c1nnc2ccc(NCn3nnc4ccccc43)nn12", "Potency": "inconclusive [cytotoxic, single point]"}
{"smiles": "CCOC(=O)c1c(C)[nH]c(C(=O)C(C)OC(=O)c2cccc(OCc3c(C)noc3C)c2)c1C", "note": "(configuration not stated)", "Potency": "inconclusive [cytotoxic, single point]"}
{"smiles": "O=C(NC(=S)NNC(=O)c1ccco1)c1ccccc1", "Potency": "inconclusive [cytotoxic, single point]"}
{"smiles": "O=C(NCc1ccco1)c1noc2c1CCCCC2", "Potency": "inconclusive [cytotoxic, single point]"}
{"smiles": "CC(=O)Nc1ccc(Oc2sc(C(=O)c3ccccc3)c(N)c2C#N)cc1", "Potency": "active: 16.4 µM"}
{"smiles": "Nc1nc(SCc2ccccc2[N+](=O)[O-])c2ncn(Cc3ccccc3)c2n1", "Potency": "inconclusive [cytotoxic, partial curve]"}
{"smiles": "CCOc1ccc(CCN2C(=O)C(=O)N([C@@H](Cc3ccc(O)cc3)CN3CCC[C@@H]3CN3C(=O)C(=O)NC[C@@H]3Cc3ccccc3)C[C@@H]2Cc2ccccc2)cc1", "Potency": "inconclusive [cytotoxic, single point]"}
{"smiles": "Cc1cc(C)nc(NC(=NCc2ccc3c(c2)OCO3)NC(=O)Nc2ccccc2)n1", "Potency": "inconclusive [cytotoxic, single point]"}
{"smiles": "O=S(=O)(C/C(=C/CO)S(=O)(=O)c1ccccc1)c1ccccc1", "Potency": "active: 2 µM"}
{"smiles": "Cn1cnc(Sc2ncnc3nc[nH]c23)c1[N+](=O)[O-]", "Potency": "active: 18.4 µM"}
{"smiles": "c1cc2[nH]snc2c2nc(C3CC3)nc12", "Potency": "inconclusive [cytotoxic, single point]"}
{"smiles": "COc1cccc(NC(=O)Nc2nnc(-c3ccccc3SCc3ccccc3)s2)c1", "Potency": "inconclusive [cytotoxic, partial curve]"}
{"smiles": "COC(CNC(=O)c1cn(C)c2ccc(S(=O)(=O)N(C)C3CCCCC3)cc2c1=O)OC", "Potency": "inactive"}
{"smiles": "COc1cccc(C(=O)NCCSc2c(C)[nH]c3ccccc23)c1OC", "Potency": "inconclusive [cytotoxic, single point]"}
{"smiles": "CN1CCN(c2ccccc2NC(=O)c2ccc(-c3ccccc3)cc2)CC1", "Potency": "inconclusive [cytotoxic, single point]"}
{"smiles": "N#CC(C(N)=O)=C1CCCCC1", "Potency": "inactive"}
{"smiles": "O=C(O)C1CCN(S(=O)(=O)c2ccc(N3CCCC3C(=O)O)c([N+](=O)[O-])c2)CC1", "note": "(configuration not stated)", "Potency": "inactive"}
{"smiles": "Cc1onc(-c2ccccc2)c1NC(=O)N(CCC(=O)O)Cc1ccccc1", "activity, negative = toxicity": "inconclusive: 32.7%"}
{"smiles": "COc1ccc(-c2c(C)nn(-c3ccccc3)c2N)cc1OC", "Potency": "inactive"}
{"smiles": "CCCc1nc2c3ccccc3ccn2c1Cc1ccc(C)cc1", "Potency": "inconclusive [cytotoxic, single point]"}
{"smiles": "CCC(C)(C)n1nnnc1C(c1ccccc1OC)N1CCN(C(=O)c2ccco2)CC1", "note": "(configuration not stated)", "Potency": "inactive"}
{"smiles": "Cc1ccccc1OCCCCc1c(C)n[nH]c1C", "Potency": "inconclusive [cytotoxic, single point]"}
{"smiles": "CN(C)c1ccc(C2C=C(c3ccc(Cl)cc3OC(F)F)Nc3ncnn32)cc1", "note": "(configuration not stated)", "Potency": "inconclusive [cytotoxic, single point]"}
{"smiles": "O=C(Cc1ccc(S(=O)(=O)N2CCOCC2)s1)Nc1ccccc1Br", "Potency": "inactive"}
{"smiles": "CC(=O)c1ccc(S(=O)(=O)NCC(=O)Nc2nc3ccccc3[nH]2)cc1", "Potency": "inactive"}
{"smiles": "O=C(CN1C(=O)NC2(CCCc3ccccc32)C1=O)Nc1cc(F)ccc1F", "note": "(configuration not stated)", "Potency": "inactive"}
{"smiles": "CC1CCN(S(=O)(=O)N2CCCC(C(=O)NCc3ccc(F)cc3)C2)CC1", "note": "(configuration not stated)", "Potency": "inactive"}
{"smiles": "CN1CCN(C(=O)c2ccc3c(=O)n(Cc4ccc(Cl)cc4)c(=S)[nH]c3c2)CC1", "Potency": "inconclusive [cytotoxic, single point]"}
{"smiles": "CC(C)C1CC(CCN2CCCCC2)(c2ccccc2)CCO1", "note": "(configuration not stated)", "Potency": "inactive"}
{"smiles": "OC(COCc1ccc(Cl)cc1)CN1CCN(CC(O)COCc2ccc(Cl)cc2)CC1", "note": "(configuration not stated)", "Potency": "inconclusive [cytotoxic, partial curve]"}
{"smiles": "N#Cc1c(-c2cccnc2)cc(-c2ccccc2)nc1N", "activity, negative = toxicity": "inconclusive: -2.98% [cytotoxic]"}
{"smiles": "COc1ccc(-c2coc3c(C(=O)NCC(C)C)cccc23)c(C)c1", "Potency": "inconclusive [cytotoxic, single point]"}
{"smiles": "Cc1ccc(C(=O)Oc2coc(CSc3nnc(NC(=O)c4cccs4)s3)cc2=O)cc1C", "Potency": "inconclusive [cytotoxic, partial curve]"}
{"smiles": "CCC(C)Sc1ccc(-c2nc3ccc(C)cn3c2NCc2ccccc2)cc1OC", "note": "(configuration not stated)", "Potency": "inconclusive [cytotoxic, single point]"}
{"smiles": "COc1ccccc1-c1cc(C(=O)Nc2cc(C)nn2-c2ccccc2)no1", "Potency": "active: 3.16 µM"}
{"smiles": "Cc1ccc(C23CC4CC(CC(C(=O)N5CCOCC5)(C4)C2)C3)cc1", "Potency": "inactive"}
{"smiles": "CC1(C(=O)Nc2cnc3ccccc3c2)CCN1C(=O)c1ccccc1CCc1ccccc1", "note": "(configuration not stated)", "Potency": "inconclusive [cytotoxic, single point]"}
{"smiles": "CC(C)c1c(C(=O)N/N=C/c2ccccc2OCc2c(F)cccc2Cl)nnn1-c1nonc1N", "activity, negative = toxicity": "inconclusive: -3% [cytotoxic]"}
{"smiles": "CCN(CC)CCCNC(=S)N1CCN(c2nc(-c3ccc(F)cc3)cs2)CC1", "Potency": "active: 8.2 µM"}
{"smiles": "COc1ccc(Nc2oc(-c3ccccc3Cl)nc2C#N)cc1", "Potency": "inconclusive [cytotoxic, partial curve, poor fit]"}
{"smiles": "N#Cc1c(N)nc2c(c1-c1ccco1)CCCCC2", "Potency": "inconclusive [cytotoxic, single point]"}
{"smiles": "N#Cc1cccc(N=Cc2c(O)ccc3ccccc23)c1", "Potency": "inconclusive [cytotoxic, single point]"}
{"smiles": "O=C(CSc1ccc(Cl)cc1)N1CCC(c2nc3ccccc3s2)CC1", "activity, negative = toxicity": "inactive: -6.78% [at 9.24 µM]"}
{"smiles": "FC(F)(F)c1cccc(Sc2nc(-c3ccccc3)nnc2C(F)(F)F)c1", "Potency": "inconclusive [cytotoxic, single point]"}
{"smiles": "CCN1C[C@@H]2[C@@H]3C(=O)N(Cc4ccccc4)C(=O)[C@@H]3[C@](Cc3ccccc3)(C1=O)N2C(=O)c1ccc(Cl)c(Cl)c1", "Potency": "inactive"}
{"smiles": "O=S(=O)(c1ccccc1)N(CC(F)(F)F)c1ccc(C(O)(C(F)(F)F)C(F)(F)F)cc1", "Potency": "inconclusive [cytotoxic, single point]"}
{"smiles": "CCCCn1c(N)c(N(Cc2ccccc2OC)C(=O)COc2ccccc2C#N)c(=O)[nH]c1=O", "Potency": "inactive"}
{"smiles": "COc1ccc(NC(=O)N(C)[C@H]2C[C@H]3c4[nH]c5ccc(-c6ccc(OC)cc6)cc5c4CCN3C[C@H]2[C@H](C)O)cc1", "Potency": "active: 16.4 µM"}
{"smiles": "COCCOC(=O)c1c(C)oc2ccc(OC(=O)c3ccco3)cc12", "Potency": "inconclusive [rising, partial curve, poor fit]"}
{"smiles": "Cc1onc(-c2ccccc2)c1C(=O)NC1CCC(C)CC1", "note": "(configuration not stated)", "Potency": "inactive"}
{"smiles": "COc1ccc(Br)c(C(=O)N2CCN(S(=O)(=O)c3cccs3)CC2)c1", "Potency": "inactive"}
{"smiles": "CCOC(=O)N1CCN(C(=O)/C=C/c2ccc([N+](=O)[O-])cc2)CC1", "Potency": "inactive"}
{"smiles": "COc1ccc(OC)c(NC(=O)NC2CCCc3ccccc32)c1", "note": "(configuration not stated)", "Potency": "inactive"}
{"smiles": "CCc1nnc(NC(=O)CSc2ncnc3scc(-c4ccc(C)cc4)c23)s1", "Potency": "inactive"}
{"smiles": "CCN1CCN(CCCNC(=O)c2ccc(/C=C3/Sc4ccccc4N(Cc4ccccc4F)C3=O)cc2)CC1", "Potency": "active: 14.6 µM"}
{"smiles": "O=C1CC(N(Cc2cccs2)C(=O)Nc2ccccc2)C(=O)N1c1ccc(Cl)cc1", "note": "(configuration not stated)", "Potency": "inactive"}
{"smiles": "CCOc1cc(Br)cc(/C=N/NC(=O)c2cccnc2)c1O", "Potency": "inconclusive [cytotoxic, full curve]"}
{"smiles": "O=C(CSC1CC(=O)N(CC(c2ccccc2)c2ccccc2)C1=O)Nc1ccc(Cl)cc1", "note": "(configuration not stated)", "Potency": "inconclusive [cytotoxic, single point]"}
{"smiles": "CC(=O)Nc1ccc(N(CC(O)Cn2c3ccccc3c3ccccc32)S(=O)(=O)c2ccc(C)cc2)cc1", "note": "(configuration not stated)", "Potency": "inconclusive [cytotoxic, partial curve]"}
{"smiles": "CSc1nc(Sc2ccccc2Cl)c2ccccc2n1", "Potency": "inconclusive [cytotoxic, partial curve, poor fit]"}
{"smiles": "CC(C)CCNC(=O)CCc1nnc2n(CCCOC(C)C)c(=O)c3ccccc3n12", "Potency": "inactive"}
{"smiles": "N#Cc1cc2ccncc2c2ccccc12", "Potency": "inactive"}
{"smiles": "CC(C)c1ccc(N2C(=NC(=O)C3CC3)SC3CS(=O)(=O)CC32)cc1", "note": "(configuration not stated)", "Potency": "inactive"}
{"smiles": "CC1=C(C)CS(=O)N(S(=O)(=O)c2ccccc2)C1", "note": "(configuration not stated)", "Potency": "inconclusive [cytotoxic, single point]"}
{"smiles": "O=C(CCN1C(=O)c2ccccc2C1=O)c1cnc[nH]1", "Potency": "inconclusive [cytotoxic, partial curve, poor fit]"}
{"smiles": "CN1CCN(S(=O)(=O)c2cccc(C(=O)Oc3ccc(Br)cc3F)c2)CC1", "Potency": "inactive"}
{"smiles": "S=C(N/N=C/c1ccccc1Cl)Nc1cccc(Cl)c1Cl", "Potency": "inconclusive [cytotoxic, single point]"}
